Results are given in words; binding and its absence hold for the method and conditions named. In cells and extracts the contact can be indirect. Some results given as binding are weak or reduced against the parent protein; the word gives no strength. For some of these results: Tags and fused reporters may be left off the sequences shown. Blank lines part the entries; values can stand above or below the molecule they belong to.
Columns and labels:
[1] = target: E18A/C106S DJ-1 (HA-tagged and One-STrEP-tagged, in DJ-1(-/-) cells) (human) (UniProt Q99497); assay: pull-down; DJ-1(-/-) mouse cells co-transfected with HA-tagged and corresponding One-STrEP-tagged DJ-1; extracts 26 hrs after transfection applied onto Strep-Tactin Sepharose; blotted with anti-HA and anti-StrEP
[2] = target: C106S DJ-1 (HA-tagged and One-STrEP-tagged, in DJ-1(-/-) cells) (human) (UniProt Q99497); assay: as above
[3] = target: wild-type DJ-1 (FLAG-tagged and One-STrEP-tagged, in 293T cells) (human) (UniProt Q99497); assay: pull-down; 293T cells co-transfected with FLAG-tagged and One-STrEP-tagged DJ-1; extracts applied onto Strep-Tactin sepharose; bound proteins blotted with anti-STrEP and anti-FLAG
[4] = target: C106S DJ-1 (FLAG-tagged and One-STrEP-tagged, in 293T cells) (human) (UniProt Q99497); assay: cross-linking; 293T cells transfected with FLAG-tagged DJ-1; extracts 24 hrs after transfection reacted with 5 mM DSS for 30 min; Western blot with anti-FLAG; dimer around 45 kDa
[5] = target: C106S DJ-1 (FLAG-tagged and One-STrEP-tagged, in 293T cells) (human) (UniProt Q99497); assay: pull-down; 293T cells co-transfected with FLAG-tagged and One-STrEP-tagged DJ-1; extracts applied onto Strep-Tactin sepharose; bound proteins blotted with anti-STrEP and anti-FLAG
[6] = target: C106S DJ-1 (FLAG-tagged and One-STrEP-tagged, in 293T cells) (human) (UniProt Q99497); assay: co-IP; 293T cells co-transfected with FLAG-tagged and corresponding One-STrEP-tagged DJ-1; extracts (1% NP40) 54 hrs after transfection immunoprecipitated with anti-FLAG M2 agarose; blotted with anti-STrEP
[7] = target: E18S DJ-1 (HA-tagged and One-STrEP-tagged, in DJ-1(-/-) cells) (human) (UniProt Q99497); assay: pull-down; DJ-1(-/-) mouse cells co-transfected with HA-tagged and corresponding One-STrEP-tagged DJ-1; extracts 26 hrs after transfection applied onto Strep-Tactin Sepharose; blotted with anti-HA and anti-StrEP
[8] = target: H126A DJ-1 (FLAG-tagged and One-STrEP-tagged, in 293T cells) (human) (UniProt Q99497); assay: cross-linking; 293T cells transfected with FLAG-tagged DJ-1; extracts 24 hrs after transfection reacted with 5 mM DSS for 30 min; Western blot with anti-FLAG; dimer around 45 kDa
[9] = target: H126A DJ-1 (FLAG-tagged and One-STrEP-tagged, in 293T cells) (human) (UniProt Q99497); assay: pull-down; 293T cells co-transfected with FLAG-tagged and One-STrEP-tagged DJ-1; extracts applied onto Strep-Tactin sepharose; bound proteins blotted with anti-STrEP and anti-FLAG
[10] = target: H126A DJ-1 (FLAG-tagged and One-STrEP-tagged, in 293T cells) (human) (UniProt Q99497); assay: co-IP; 293T cells co-transfected with FLAG-tagged and corresponding One-STrEP-tagged DJ-1; extracts (1% NP40) 54 hrs after transfection immunoprecipitated with anti-FLAG M2 agarose; blotted with anti-STrEP
[11] = target: T1, wild-type DJ-1 (FLAG-tagged and One-STrEP-tagged, in 293T cells) (human), Q99497; assay: cross-linking; 293T cells transfected with FLAG-tagged DJ-1; extracts 24 hrs after transfection reacted with 5 mM DSS for 30 min; Western blot with anti-FLAG; dimer around 45 kDa; details: remark: other sources report otherwise
T1 chain: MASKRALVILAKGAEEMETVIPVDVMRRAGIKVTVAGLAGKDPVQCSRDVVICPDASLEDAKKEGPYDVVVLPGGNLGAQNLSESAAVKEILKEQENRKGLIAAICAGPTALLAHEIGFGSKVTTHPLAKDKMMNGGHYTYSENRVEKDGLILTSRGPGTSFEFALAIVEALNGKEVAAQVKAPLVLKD

[12] = target: T1, wild-type DJ-1 (FLAG-tagged and …); assay: pull-down; 293T cells co-transfected with FLAG-tagged and One-STrEP-tagged DJ-1; extracts applied onto Strep-Tactin sepharose; bound proteins blotted with anti-STrEP and anti-FLAG; details: remark: other sources report otherwise
[13] = target: T1, wild-type DJ-1 (FLAG-tagged and …); assay: co-IP; 293T cells co-transfected with FLAG-tagged and corresponding One-STrEP-tagged DJ-1; extracts (1% NP40) 54 hrs after transfection immunoprecipitated with anti-FLAG M2 agarose; blotted with anti-STrEP; details: remark: other sources report otherwise
[14] = target: T2, E18D DJ-1 (HA-tagged and One-STrEP-tagged, in DJ-1(-/-) cells) (human), Q99497; assay: pull-down; DJ-1(-/-) mouse cells co-transfected with HA-tagged and corresponding One-STrEP-tagged DJ-1; extracts 26 hrs after transfection applied onto Strep-Tactin Sepharose; blotted with anti-HA and anti-StrEP; details: remark: other sources report otherwise
T2 chain: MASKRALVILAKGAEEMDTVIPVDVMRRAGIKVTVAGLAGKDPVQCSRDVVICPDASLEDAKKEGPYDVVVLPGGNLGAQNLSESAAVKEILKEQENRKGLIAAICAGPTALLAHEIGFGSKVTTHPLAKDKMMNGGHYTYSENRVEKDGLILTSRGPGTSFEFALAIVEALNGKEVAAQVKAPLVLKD

binding [1]: no binding
Molecule: E18A/C106S DJ-1 (HA-tagged and One-STrEP-tagged, in DJ-1(-/-) cells) (from UniProt Q99497 1-189)

binding [3]: binds
Molecule: E18A DJ-1 (FLAG-tagged and One-STrEP-tagged, in 293T cells) (from UniProt Q99497 1-189)

binding [8]: binds
binding [9]: binds
binding [3]: binds
binding [10]: binds
Molecule: H126A DJ-1 (FLAG-tagged and One-STrEP-tagged, in 293T cells) (from UniProt Q99497 1-189)

Continued, molecule first:

Molecule: C106S DJ-1 (HA-tagged and One-STrEP-tagged, in DJ-1(-/-) cells) (from UniProt Q99497 1-189)
binding [2]: binds

Molecule: C106S DJ-1 (FLAG-tagged and One-STrEP-tagged, in 293T cells) (from UniProt Q99497 1-189)
binding [4]: binds
binding [5]: binds
binding [3]: binds
binding [6]: binds

Molecule: E18S DJ-1 (HA-tagged and One-STrEP-tagged, in DJ-1(-/-) cells) (from UniProt Q99497 1-189)
binding [7]: no binding

B1: wild-type DJ-1 (FLAG-tagged and One-STrEP-tagged, in 293T cells), Q99497 1-189 (protein)
chain: MASKRALVILAKGAEEMETVIPVDVMRRAGIKVTVAGLAGKDPVQCSRDVVICPDASLEDAKKEGPYDVVVLPGGNLGAQNLSESAAVKEILKEQENRKGLIAAICAGPTALLAHEIGFGSKVTTHPLAKDKMMNGGHYTYSENRVEKDGLILTSRGPGTSFEFALAIVEALNGKEVAAQVKAPLVLKD
binding [11]: binds
binding [12]: binds
binding [13]: binds

B2: E18D DJ-1 (HA-tagged and One-STrEP-tagged, in DJ-1(-/-) cells), Q99497 1-189 (protein)
chain: MASKRALVILAKGAEEMDTVIPVDVMRRAGIKVTVAGLAGKDPVQCSRDVVICPDASLEDAKKEGPYDVVVLPGGNLGAQNLSESAAVKEILKEQENRKGLIAAICAGPTALLAHEIGFGSKVTTHPLAKDKMMNGGHYTYSENRVEKDGLILTSRGPGTSFEFALAIVEALNGKEVAAQVKAPLVLKD
binding [14]: no binding
